Experimental data reported in the supplement of paper PMC11417369.
Some of the results follow.

Tested on: PfHDP1 homeodomain (GST-tagged)
Assay: gcPBM binding intensity (ln(normalized median fluorescence intensity)); higher = stronger DNA binding
Procedure, shortened: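 Probes on an Agilent 4 × 180k array were primer-extended, double-stranded and 36 bp long, taken from intergenic genomic regions, with negative controls added. GST-tagged P. falciparum DNA-binding domains from E. coli, about 25 μg on average, were applied to the array for 1 h in 1× PBS containing 1% milk, 0.2 mg/ml BSA, 0.5% salmon testes DNA and 0.03% Triton X-100. Binding intensity, obtained after Alexa488 anti-GST antibody detection and a 488 nm scan, is the highest Masliner-normalised natural-log median intensity across replicate spots of either probe orientation.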

| Sequence | gcPBM binding intensity (ln) |
| --- | --- |
| GCCCCCTAAAAAATTACACACGAAAAAAATGAATTT [CACACA_site9128] | 7.63 |
| TTTTTTTTTTTTTTATGTACACATCTAAAAAAAAGG [XGTACX_site2067] | 6.75 |
| TTTAACAAGTTAAACACACATACATATATACATATA [CACACA_site2536] | 6.4 |
| AAAAATAACATATAAACACACATATAGATTTATATA [CACACA_site7738] | 6.33 |
| TGTAGTCTGGAGAAGAGTACACAGTATCTGGTAGCT [XGTACX_site2036] | 5.85 |
| TTAAAAAATCACAACACACACACACGCAAAAAAAAA [CACACA_site6793] | 6.95 |
| ATATAGAATGTTTACACACGCAATAAATATATATAT [CACACA_site217] | 7.99 |
| GCGTATCATTTTAAAACACACAGGATTTTATAAGTA [CACACA_site1225] | 6.42 |
| ATGGTATAAAAAAATACACACTTATTTATATTCTTA [CACACA_site6370] | 6.11 |
| ATGTACCTTCAAACTACACACAAATGAAGGAACACA [CACACA_site3330] | 6.55 |
| ATCTAATAAAAATACACACACATATGGTTTGTGAAT [CACACA_site6962] | 6.63 |
| AAATATTACATACACGCACACATTAAAATATTTAAA [CACACA_site5440] | 7.46 |
| AATATATATATATATATATTTTTGTTAGAATATGGA [CACACA_negctrl_site212] | 6.69 |
| TCTATTAATTAATATACACACATTATATATATATAT [CACACA_site8815] | 8.73 |
| TACATTATAAATATTACACACTTTATAAAATAATAA [CACACA_site6096] | 6.45 |
| AAATAACTTTTAAATACACACGTAAAATATATTGTG [CACACA_site9085] | 6.39 |
| ACCGTGGGAGGACACACACACACACGCACATATATA [CACACA_site6289] | 6.63 |
| TCCTTTTTTTTTTATGCACACACAATTATACATTCC [CACACA_site9287] | 10.5 |
| TTAACCACTAAAAGTACACACATATATACATATATA [CACACA_site3912] | 6.36 |
| ATAATATTTTTATGTACACACCTTAATCCTTAAAAG [CACACA_site5881] | 6.62 |
| ATTATGCACAGACACACACACACACTACTAAAAAAT [CACACA_site7252] | 11.1 |
| ATAGGAGAAAAAGAATGTACGTATGATGTTGAAAAT [XGTACX_site7779] | 7.06 |

| Sequence | gcPBM binding intensity (ln) |
| --- | --- |
| AATTTTTAGAAGAACACACACATATATATTATGACC [CACACA_site246] | 6.78 |
| AAAAAAAATAAAAATATATATATATATATATAAATA [GTGCAC_negctrl_site676] | 6.74 |
| AAGCATTTTTTTTAAAGCCTGTTCATCATCCTTACC [CACACA_negctrl_site129] | 6.22 |
| AAATAAATAAATAGAGTGCATATATATATATATTTT | 7.78 |
| CTTTTTATTTATCATACACACACAGAAAAAAAAAAA [CACACA_site7935] | 6.59 |
| ATATACAAAGGATTAACACACATATTATTATAGATA [CACACA_site6966] | 6.43 |
| TATTTATATATTTGTTGTACGTATTTATATATTCTT [XGTACX_site3622] | 6.55 |
| TTATATTAATATTATATTTAAAAATAAAATATAAAT [TGCATGCA_negctrl_site79] | 5.8 |
| AAACAAAAAAGAAAAACAATGAGATAAAGAAGAGAA [CACACA_negctrl_site804] | 7.09 |
| AAAAGAAAAATATTCACACATATAAATAATATATAA [CACACA_site4201] | 6.11 |
| TTTAATTATTTATTTTGTACATATATTATATATATA [XGTACX_site5760] | 6.86 |
| ATTTTTATATATATCTGTACTAAAAAAAAAAAAAAA [XGTACX_site5258] | 6.47 |
| AGAAGTAAAAAAATAGCACACACACTAATACCAACA [CACACA_site8354] | 7.15 |
| AAAAGAGAAATGGGCACACACACACCCATTATATAT [CACACA_site1530] | 6.43 |
| ATATATACATACATATGTACATATGTAGATATATTT [XGTACX_site1230] | 6.43 |
| TATTTGTTTAAATTCACACACGTATATATATTTATA [CACACA_site5651] | 6.56 |
| ATTATGAAATATCGTGCACACACGAATAATATAAGA [CACACA_site1294] | 9.49 |
| TACGTTTTAAAACACACACACAAAAAAAAAAAAAAA [CACACA_site3876] | 6.46 |
| ATTTTTTTTGTTTATTCTTATGTGGTTATTAAATTA [CACACA_negctrl_site1000] | 6.81 |
| ATTAATTTGATTTTAATAAGAATATTTGTGGGGAAT [GTGCAC_negctrl_site198] | 6.62 |
| TGAATAATAAAAAATACACACACATATATATATATT [CACACA_site9146] | 6.54 |
| TTTTATTTTTGTTGGTCCCTCATTTAAGTTAATAAA [TGCATGCA_negctrl_site465] | 6.5 |
